Test results as given in patent publication US20030138423A1, “Method of treating inflammation with HIV-1 protease inhibitors and their derivatives” (CEDARS-SINAI MEDICAL CENTER, priority 2001, published 2003).

System: NF-κB
Experiment: LPS-induced NF-κB luciferase activation in HMEC
Details: pretreatment before LPS, nelfinavir 1, 3, 6 μg/ml

Compound: Cc1c(O)cccc1C(=O)N[C@@H](CSc1ccccc1)[C@H](O)CN1C[C@H]2CCCC[C@H]2C[C@H]1C(=O)NC(C)(C)C [nelfinavir]
- LPS-induced NF-κB activation (percent NF-κB luciferase activity): inhibited LPS-induced NF-κB activation in both a dose-dependent (FIG. 1) and time-dependent manner
